Several values for one entry are separate records, joined by “and”; a condition that tells them apart may be missing. Equal entries are not always repeated. This continues a long series; more values of the same kind are listed elsewhere. Toxic doses and inconclusive results are not listed. How the source made its calls: active means survival T/C of 150% or more; inactive means T/C below 125% in these data.
Test system: P388 leukemia ip, CD2F1 mice, survival T/C
Assay: NCI In Vivo Anticancer Drug Screen. Data for tumor model P388 Leukemia (intraperitoneal) in CD2F1 (CDF1) mice
Details: endpoint: median survival time, higher = longer survival
Procedure: The antitumor activity of compounds was measured in mice bearing transplantable tumors. Survival or tumor size were measured and the results are expressed as the measurement made in the treated group (T) divided by the measurement made in the vehicle treated control group (C). The tumor model used in this assay is P388 Leukemia (intraperitoneal) in CD2F1 (CDF1) mice

Measured: T/C

COc1cc2cc(c1Cl)N(C)C(=O)C[C@H](OC(=O)[C@H](C)N(C)C(C)=O)[C@]1(C)O[C@H]1[C@H](C)[C@@H]1C[C@@](O)(NC(=O)O1)[C@H](OC)C=C/C=C(\C)C2
active: dose: 0.07 mg/kg/injection, schedule: Q04DX003 (ip), vehicle: saline 183 % of control | dose: 0.11 mg/kg/injection, schedule: Q04DX003 (ip), vehicle: saline 188 % of control | dose: 0.3 mg/kg/injection, schedule: Q04DX003 (ip), vehicle: saline 218 % of control | dose: 16.0 micrograms/kg/injection, schedule: Q01DX009 (ip), vehicle: other 186 % of control | dose: 16.0 micrograms/kg/injection, schedule: Q01DX009 (ip), vehicle: water 175 % of control | dose: 16.0 micrograms/kg/injection, schedule: Q03HX008 (ip), vehicle: other 181 % of control | dose: 16.0 micrograms/kg/injection, schedule: Q03HX016 (ip), vehicle: other 190 % of control | dose: 16.0 micrograms/kg/injection, schedule: Q03HX016 (ip), vehicle: saline + alcohol 181 % of control | dose: 16.0 micrograms/kg/injection, schedule: Q03HX024 (ip), vehicle: saline + alcohol 195 % of control | dose: 32.0 micrograms/kg/injection, schedule: Q03HX008 (ip), vehicle: other 200 % of control | dose: 32.0 micrograms/kg/injection, schedule: Q03HX008 (ip), vehicle: saline + alcohol 181 % of control | dose: 32.0 micrograms/kg/injection, schedule: Q03HX016 (ip), vehicle: other 177 % of control | dose: 32.0 micrograms/kg/injection, schedule: Q04DX003 (ip), vehicle: water 181 % of control | dose: 64.0 micrograms/kg/injection, schedule: Q03HX016 (ip), vehicle: saline + alcohol 177 % of control | dose: 64.0 micrograms/kg/injection, schedule: Q04DX003 (ip), vehicle: other 181 % of control | dose: 64.0 micrograms/kg/injection, schedule: Q04DX003 (ip), vehicle: water 177 % of control | dose: 100.0 micrograms/kg/injection, schedule: Q01DX005 (ip), vehicle: saline 200 % of control | dose: 100.0 micrograms/kg/injection, schedule: Q01DX009 (ip), vehicle: saline + alcohol 176 % of control | dose: 128.0 micrograms/kg/injection, schedule: Q04DX003 (ip), vehicle: other 190 % of control | dose: 128.0 micrograms/kg/injection, schedule: Q04DX003 (ip), vehicle: water 190 % of control | dose: 240.0 micrograms/kg/injection, schedule: Q04DX002 (ip), vehicle: saline + alcohol 178 % of control | dose: 256.0 micrograms/kg/injection, schedule: Q08DX002 (ip), vehicle: other 181 % of control | dose: 256.0 micrograms/kg/injection, schedule: Q08DX002 (ip), vehicle: saline + alcohol 181 % of control | dose: 512.0 micrograms/kg/injection, schedule: Q08DX002 (ip), vehicle: saline + alcohol 177 % of control | dose: 512.0 micrograms/kg/injection, schedule: Q08DX002 (ip), vehicle: saline 181 % of control
inactive: dose: 0.24 mg/kg/injection, schedule: Q04DX002 (ip), vehicle: saline + alcohol 92 % of control | dose: 0.4 mg/kg/injection, schedule: Q04DX002 (ip), vehicle: saline + alcohol 89 % of control | dose: 0.3 micrograms/kg/injection, schedule: Q01DX009 (sc), vehicle: other 95 % of control | dose: 1.0 micrograms/kg/injection, schedule: Q01DX001 (sc), vehicle: other 95 % of control | dose: 2.0 micrograms/kg/injection, schedule: Q01DX009 (oral), vehicle: other 95 % of control | dose: 4.0 micrograms/kg/injection, schedule: Q01DX001 (sc), vehicle: other 90 % of control

CN(Cc1cnc2nc(N)nc(N)c2n1)c1ccc(C(=O)N[C@@H](CCC(=O)O)C(=O)O)cc1
inactive: dose: 1.0 mg/kg/injection, schedule: Q02DX005 (ip), vehicle: saline 90 % of control | dose: 3.0 mg/kg/injection, schedule: Q01DX009 (ip), vehicle: other 90 % of control | dose: 7.0 mg/kg/injection, schedule: Q01DX005 (ip), vehicle: sodium bicarbonate 90 % of control | dose: 25.0 mg/kg/injection, schedule: Q04DX003 (ip), vehicle: sodium bicarbonate 85 % of control | dose: 33.3 mg/kg/injection, schedule: Q04DX003 (ip), vehicle: sodium bicarbonate 96 % of control | dose: 36.0 mg/kg/injection, schedule: Q04DX002 (ip), vehicle: sodium bicarbonate 97 % of control | dose: 60.0 mg/kg/injection, schedule: Q01DX001 (ip), vehicle: sodium bicarbonate 50 % of control
active: dose: 0.75 mg/kg/injection, schedule: Q01DX015 (ip), vehicle: sodium bicarbonate 220 % of control | dose: 1.3 mg/kg/injection, schedule: Q01DX009 (ip), vehicle: sodium bicarbonate 205 % of control and 223 % of control | dose: 1.5 mg/kg/injection, schedule: Q01DX009 (ip), vehicle: other 213 % of control | dose: 1.5 mg/kg/injection, schedule: Q01DX009 (ip), vehicle: saline 213 % of control | dose: 1.5 mg/kg/injection, schedule: Q01DX015 (ip), vehicle: sodium bicarbonate 215 % of control and 263 % of control | dose: 1.5 mg/kg/injection, schedule: Q## X009 (ip), vehicle: sodium bicarbonate 224 % of control | dose: 3.0 mg/kg/injection, schedule: Q01DX015 (ip), vehicle: sodium bicarbonate 271 % of control | dose: 3.0 mg/kg/injection, schedule: Q02DX005 (ip), vehicle: sodium bicarbonate 209 % of control | dose: 4.0 mg/kg/injection, schedule: Q04DX003 (ip), vehicle: sodium bicarbonate 207 % of control | dose: 5.4 mg/kg/injection, schedule: Q04DX003 (ip), vehicle: sodium bicarbonate 209 % of control | dose: 8.0 mg/kg/injection, schedule: Q04DX003 (ip), vehicle: sodium bicarbonate 209 % of control | dose: 8.64 mg/kg/injection, schedule: Q04DX003 (ip), vehicle: sodium bicarbonate 224 % of control | dose: 9.0 mg/kg/injection, schedule: Q04DX003 (ip), vehicle: sodium bicarbonate 209 % of control | dose: 9.2 mg/kg/injection, schedule: Q04DX003 (ip), vehicle: saline 231 % of control | dose: 12.0 mg/kg/injection, schedule: Q04DX003 (ip), vehicle: sodium bicarbonate 217 % of control | dose: 14.4 mg/kg/injection, schedule: Q04DX003 (ip), vehicle: sodium bicarbonate 231 % of control | dose: 15.0 mg/kg/injection, schedule: Q04DX003 (ip), vehicle: sodium bicarbonate 211 % of control | dose: 15.0 mg/kg/injection, schedule: Q04DX004 (ip), vehicle: sodium bicarbonate 225 % of control | dose: 16.0 mg/kg/injection, schedule: Q04DX003 (ip), vehicle: sodium bicarbonate 225 % of control | dose: 18.0 mg/kg/injection, schedule: Q04DX003 (ip), vehicle: sodium bicarbonate 224 % of control | dose: 24.0 mg/kg/injection, schedule: Q04DX003 (ip), vehicle: sodium bicarbonate 204 % of control and 245 % of control | dose: 30.0 mg/kg/injection, schedule: Q04DX003 (ip), vehicle: sodium bicarbonate 231 % of control and 247 % of control | dose: 60.0 mg/kg/injection, schedule: Q04DX002 (ip), vehicle: sodium bicarbonate 221 % of control

From PubChem BioAssay AID330 (DTP/NCI, 2004)
